# From PubChem BioAssay (Tox21)
# Where “and” joins values, the source holds several entries; their conditions need not be identical. Identical values can stand only once. Inconclusive means that the source gave no clear call. Such entries were picked first, then a sample of the others. Potencies beside an inconclusive call are fits to weak or partial responses and may not hold up. Calls of active or inactive are those of the source. Unless noted, calls follow the shape of the full dose curve.
# What was measured:
# [1] = qHTS assay to identify small molecule agonists of the endoplasmic reticulum stress response signaling pathway (AID 1159516; active = well fitted activation curve with a large enough effect in the signal ratio in the repeat runs, not every such curve was filed as active; inconclusive = weak or mixed curves, or effect the other way; the % refers to the signal ratio; as to activation: % is scaled to controls: 0 for no effect and ±100 for the full control effect); conditions: ESRE-bla HeLa, ER stress beta-lactamase reporter, 5 h; activation: at 61 µM (top of the series) unless noted
# Method in brief: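 ER stress element reporter (bla) in HeLa. 1,500 cells/well, overnight attachment; 5 hr compound; 2 hr RT substrate; dual-emission fluorescence.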
# [2] = qHTS assay to identify small molecule agonists of the AP-1 signaling pathway - cell viability counter screen (AID 1159525); also: nearly all actives have a fitted effect of over 55% in size
# Method in brief: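 ME-180 AP-1-bla, 2500 cells/well, Opti-MEM + 0.5% dialyzed FBS; overnight 37 °C; cpd 15-pt titration, 5 h 37 °C; CellTiter-Glo 30 min RT; luminescence read; normalised to TOAB and DMSO controls.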
# [3] = qHTS assay to identify small molecule agonists of the AP-1 signaling pathway (AID 1159526); conditions: ME-180 (cervical carcinoma) AP-1-bla reporter, beta-lactamase FRET ratio, 5 h; activation: at 76.8 µM (top of the series) unless noted; as to activation: % is scaled to controls: 0 for no effect and ±100 for the full control effect
# [4] = qHTS assay to identify small molecule antagonists of the vitamin D receptor (VDR) signaling pathway - cell viability counter screen (AID 743225; active = well fitted cell-killing curve with a large enough effect in the repeat runs; inconclusive = weak or mixed curves, or effect the other way; inactive = no such curve, though single readings can be large or run the other way; also: nearly all actives have a fitted effect of over 50% in size; as to viability change, negative = cytotoxic: % is scaled to controls: 0 for no effect and ±100 for the full control effect); conditions: VDR-bla HEK293T viability, CellTiter-Glo luminescence, 16 h; viability change, negative = cytotoxic: at 61 µM (top of the series) unless noted
# Method in brief: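 Compounds were pinned onto VDR-bla HEK 293T cells together with 1-alpha,25-dihydroxyvitamin D3 at 3 nM final. After 16 h at 37C and 5% CO2 plus the reporter readout, cell viability was measured by CellTiter-Glo luminescence (30 min, room temperature).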
# [5] = qHTS assay to identify small molecule agonists of the endoplasmic reticulum stress response signaling pathway - cell viability counter screen (AID 1159517); also: nearly all actives have a fitted effect of over 50% in size
# Method in brief: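 CellTiter-Glo was added to wells already read for beta-lactamase FRET, and luminescence was recorded 30 min later. Cells: ESRE-bla HeLa, 1,500 per well, compound exposure 5 hr at 37 C.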
# [6] = qHTS assay to identify small molecule antagonists of the retinoid-related orphan receptor gamma (ROR-gamma) signaling pathway - cell viability counter screen (AID 1159520; active = well fitted cell-killing curve with a large enough effect in the repeat runs; inconclusive = weak or mixed curves, or effect the other way; inactive = no such curve, though single readings can be large or run the other way; also: nearly all actives have a fitted effect of over 50% in size)
# Method in brief: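 Tet-on ROR gamma CHO cells (1,000/well) were plated 4 hr, given compounds in DMSO for 2 hr at 37 C, then induced with 1 uM final doxycycline for 16 hr. Viability was read as ATP by CellTiter-Glo luminescence after 30 min.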
# [7] = qHTS assay to identify small molecule agonists of the vitamin D receptor (VDR) signaling pathway - cell viability counter screen (AID 743224; active = well fitted cell-killing curve with a large enough effect in the repeat runs; inconclusive = weak or mixed curves, or effect the other way; inactive = no such curve, though single readings can be large or run the other way; also: nearly all actives have a fitted effect of over 50% in size); conditions: VDR-bla HEK293T viability, CellTiter-Glo luminescence, 16 h; activity change, negative = cytotoxicity: at 62.6 µM (top of the series)
# Method in brief: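 VDR-bla cell line, quantitative HTS format; 16 h compound incubation (37C, 5% CO2); ATP-based CellTiter-Glo luminescence measured in the reporter assay wells.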
# Potency is read from the fitted curve at half-maximal effect; tags tell the direction and shape of the fitted curve or compound fluorescence and quenching.
compound,measurement,setting,value
Oc1cccc2cc3cccc(O)c3c(O)c12,Potency,[1],"inconclusive: 13.9 µM [falling, partial curve, poor fit]"
same,Potency,[2],"inconclusive: 0.0014 µM [cytotoxic, full curve, poor fit]"
same,Potency,[3],"inconclusive: 4.92 µM [falling, full curve]"
C=CC(=O)OCCCCCCOC(=O)C=C,"viability change, negative = cytotoxic",[4],inconclusive: -35.3% [cytotoxic] [at 78.8 µM]
same,Potency,[5],"inconclusive: 38.9 µM [cytotoxic, partial curve, poor fit]"
same,Potency,[6],"inconclusive: 19.3 µM [cytotoxic, full curve]"
Nc1cccc(N)n1,Potency,[6],inactive
same,Potency,[2],inactive
c1cnc2c(c1)ccc1cccnc12,Potency,[4],"inconclusive: 24.8 µM [cytotoxic, partial curve, poor fit] and active: 5.49 µM and active: 7.76 µM"
same,Potency,[1],inactive
same,Potency,[5],"inconclusive: 7.83 µM [rising, full curve, poor fit]"
same,Potency,[6],"inconclusive: 61.7 µM [cytotoxic, partial curve]"
same,Potency,[2],"inconclusive: 35 µM [rising, partial curve]"
same,Potency,[3],"inconclusive: 4.94 µM [full curve] and inconclusive: 7.76 µM [activator, full curve] and inconclusive: 7.76 µM"
O=S(=O)(O)c1ccc2nc(-c3ccccc3)[nH]c2c1,Potency,[7],"inconclusive: 10.6 µM [cytotoxic, partial curve]"
same,Potency,[4],"inconclusive: 16.5 µM [cytotoxic, partial curve] and inconclusive: 30.1 µM [cytotoxic, partial curve, poor fit]"
same,Potency,[5],"active: 46.6 µM and inconclusive: 9.52 µM [cytotoxic, partial curve]"
same,Potency,[6],"inconclusive: 29.1 µM [cytotoxic, partial curve] and inconclusive: 13.3 µM [cytotoxic]"
same,Potency,[2],"inconclusive: 20.8 µM [cytotoxic, partial curve] and inconclusive: 16.9 µM [cytotoxic, partial curve]"
C=C1C(=C/C=C2\CCC[C@]3(C)[C@@H]([C@H](C)/C=C/[C@@H](O)C4CC4)CC[C@@H]23)C[C@@H](O)C[C@@H]1O,Potency,[2],"inconclusive: 19 µM [cytotoxic, partial curve]"
same,Potency,[3],"inconclusive: 21.3 µM [cytotoxic, partial curve]"
CCCCCCCCCCCCCCCBr,Potency,[4],inactive
same,activation,[3],inconclusive: 28.6% [at 35.3 µM]
